{"source": "the supplement of paper PMC12645437", "about": "“Orthogonal IMiD-Degron Pairs Induce Selective Protein Degradation in Cells” (ACS Chemical Biology, 2025)", "note": "The other results are listed elsewhere or left out.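 Also: jurkat cells carrying a lentiviral library of mutant zinc finger degrons fused to EGFP plus mCherry, mCherry+ cells FACS sorted, degron abundance counted by next-generation sequencing.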"}
{"molecular_target": "no compound (DMSO)", "assay": "log2 fold change of degron read counts, EGFP-low vs EGFP+ sorted cells; higher = lower degron-EGFP level without compound (poor expression or instability)", "conditions": "compound: DMSO control; 18 h"}
{"sequence": "FKCPICGAQFTQKGNLLRHIKL", "log2 fold change of degron read counts": 0.0242}
{"sequence": "FGCPICGHLFTQKGNLLRHIKL", "log2 fold change of degron read counts": 0.112}
{"sequence": "FCCPQCGALFTQKGNLLRHIKL", "log2 fold change of degron read counts": -0.275}
{"sequence": "FICEICGAVFTQKGNLLRHIKL", "log2 fold change of degron read counts": -1.19}
{"sequence": "FMCPQCGAKFTQKGNLLRHIKL", "log2 fold change of degron read counts": -0.667}
{"sequence": "FGCEICGAYFTQKGNLLRHIKL", "log2 fold change of degron read counts": -0.188}
{"sequence": "FSCNQCGRWFTQKGNLLRHIKL", "log2 fold change of degron read counts": 0.37}
{"sequence": "FNCEICGARFTQKGNLLRHIKL", "log2 fold change of degron read counts": -0.979}
{"sequence": "FKCDQCGACFTQKGNLLRHIKL", "log2 fold change of degron read counts": -1.63}
{"sequence": "LWCPICGFLCTQKGNLLRHIKL", "log2 fold change of degron read counts": 3.61}
{"sequence": "FICPQCGAKFTQKGNLLRHIKL", "log2 fold change of degron read counts": -0.782}
{"sequence": "FSCEICGAMFTQKGNLLRHIKL", "log2 fold change of degron read counts": -1.24}
{"sequence": "FWCEICGHLFTQKGNLLRHIKL", "log2 fold change of degron read counts": 1.17}
{"sequence": "LKCPICGFNCTQKGNLLRHIKL", "log2 fold change of degron read counts": 0.751}
{"sequence": "FNCPVCGAPFTQKGNLLRHIKL", "log2 fold change of degron read counts": 0.0878}
{"sequence": "FVCPQCGAGFTQKGNLLRHIKL", "log2 fold change of degron read counts": -1.33}
{"sequence": "FACSVCGHVFTQKGNLLRHIKL", "log2 fold change of degron read counts": -0.481}
{"sequence": "FGCEQCGAFFTQKGNLLRHIKL", "log2 fold change of degron read counts": -0.127}
{"sequence": "FYCNICGAKFTQKGNLLRHIKL", "log2 fold change of degron read counts": -1.47}
{"sequence": "FHCNQCGHTFTQKGNLLRHIKL", "log2 fold change of degron read counts": 0.143}
{"sequence": "FMCEQCGAPFTQKGNLLRHIKL", "log2 fold change of degron read counts": -0.741}
{"sequence": "FWCPICGRKFTQKGNLLRHIKL", "log2 fold change of degron read counts": -1.99}
{"sequence": "FMCEVCGALFTQKGNLLRHIKL", "log2 fold change of degron read counts": -0.0498}
{"sequence": "FQCNVCGAIFTQKGNLLRHIKL", "log2 fold change of degron read counts": -0.0152}
{"sequence": "FSCDQCGAQFTQKGNLLRHIKL", "log2 fold change of degron read counts": -1.42}
{"sequence": "FGCDICGADFTQKGNLLRHIKL", "log2 fold change of degron read counts": -1.4}
{"sequence": "LKCPICGFCCTQKGNLLRHIKL", "log2 fold change of degron read counts": 0.439}
{"sequence": "FDCEVCGAQFTQKGNLLRHIKL", "log2 fold change of degron read counts": -1.95}
{"sequence": "FQCEQCGAHFTQKGNLLRHIKL", "log2 fold change of degron read counts": -2.56}
{"sequence": "FACPVCGAYFTQKGNLLRHIKL", "log2 fold change of degron read counts": -0.303}
{"sequence": "FECEQCGAPFTQKGNLLRHIKL", "log2 fold change of degron read counts": -1.95}
{"sequence": "LCCEICGFYCTQKGNLLRHIKL", "log2 fold change of degron read counts": 1.03}
